Results published in ChEMBL document CHEMBL4619742, “Synthesis and evaluation of 7-azaindole derivatives bearing benzocycloalkanone motifs as protein kinase inhibitors” (Bioorg Med Chem, 2020).

Each compound was assayed against CDK2/Cyclin A2 (Homo sapiens) (UniProt P24941+P20248) (assay: Inhibition of human CDK2/Cyclin A assessed as residual activity at 1 uM using Histone 1 as substrate in presence of ATP incubated for 50 mins by ADP-GloTM assay relative to control; values are per cent of control). Conditions: not given.

Compound | residual activity
O=Cc1c[nH]c2ncccc12 | > 100%
COc1ccc2c(c1)C/C(=C\c1c[nH]c3ncccc13)C2=O | > 100%
COc1ccc2c(c1)CC/C(=C\c1c[nH]c3ncccc13)C2=O | 84%
COc1ccc2c(c1)C(=O)/C(=C/c1c[nH]c3ncccc13)CC2 | > 100%
O=C1/C(=C/c2c[nH]c3ncccc23)Cc2cc3c(cc21)OCO3 | > 100%
O=C1/C(=C/c2c[nH]c3ncccc23)CCc2cc(O)ccc21 | 94%
O=C1/C(=C\c2c[nH]c3ncccc23)CSc2ccccc21 | > 100%
O=C1/C(=C/c2c[nH]c3ncccc23)Cc2ccccc21 | 82%
O=C1/C(=C/c2c[nH]c3ncccc23)CCc2ccccc21 | 70%
COc1cc2c(cc1OC)C(=O)/C(=C/c1c[nH]c3ncccc13)C2 | > 100%
O=C1/C(=C/c2c[nH]c3ncccc23)Oc2cc(O)ccc21 | 69%
COc1cc2c(cc1OC)C(=O)/C(=C/c1c[nH]c3ncccc13)CC2 | > 100%

These compounds were tested against Serine/threonine-protein kinase pim-1 (Homo sapiens) (UniProt P11309) (assay: Inhibition of human recombinant PIM1 expressed in bacteria assessed as residual activity at 1 uM using Histone 1 as substrate in presence of ATP incubated for 30 mins by ADP-GloTM assay relative to control; values are per cent of control). Conditions: not given.

Compound | residual activity
O=Cc1c[nH]c2ncccc12 | > 100%
COc1ccc2c(c1)C/C(=C\c1c[nH]c3ncccc13)C2=O | 99%
COc1ccc2c(c1)CC/C(=C\c1c[nH]c3ncccc13)C2=O | > 100%
COc1ccc2c(c1)C(=O)/C(=C/c1c[nH]c3ncccc13)CC2 | 94%
O=C1/C(=C/c2c[nH]c3ncccc23)Cc2cc3c(cc21)OCO3 | 90%
O=C1/C(=C/c2c[nH]c3ncccc23)CCc2cc(O)ccc21 | 72%
O=C1/C(=C\c2c[nH]c3ncccc23)CSc2ccccc21 | 97%
O=C1/C(=C/c2c[nH]c3ncccc23)Cc2ccccc21 | 91%
O=C1/C(=C/c2c[nH]c3ncccc23)CCc2ccccc21 | 98%
COc1cc2c(cc1OC)C(=O)/C(=C/c1c[nH]c3ncccc13)C2 | > 100%
O=C1/C(=C/c2c[nH]c3ncccc23)Oc2cc(O)ccc21 | 73%
COc1cc2c(cc1OC)C(=O)/C(=C/c1c[nH]c3ncccc13)CC2 | > 100%

The compounds below were run against Cyclin-dependent kinase 5/CDK5 activator 1 (Homo sapiens) (UniProt Q00535+Q15078) (assay: Inhibition of human recombinant CDK5/p25 expressed in bacteria assessed as residual activity at 1 uM using Histone 1 as substrate in presence of ATP incubated for 50 mins by ADP-GloTM assay relative to control; values are per cent of control). Conditions: not given.

Compound | residual activity
O=Cc1c[nH]c2ncccc12 | > 100%
COc1ccc2c(c1)C/C(=C\c1c[nH]c3ncccc13)C2=O | > 100%
COc1ccc2c(c1)CC/C(=C\c1c[nH]c3ncccc13)C2=O | 86%
COc1ccc2c(c1)C(=O)/C(=C/c1c[nH]c3ncccc13)CC2 | > 100%
O=C1/C(=C/c2c[nH]c3ncccc23)Cc2cc3c(cc21)OCO3 | 89%
O=C1/C(=C/c2c[nH]c3ncccc23)CCc2cc(O)ccc21 | 89%
O=C1/C(=C\c2c[nH]c3ncccc23)CSc2ccccc21 | 77%
O=C1/C(=C/c2c[nH]c3ncccc23)Cc2ccccc21 | 98%
O=C1/C(=C/c2c[nH]c3ncccc23)CCc2ccccc21 | 85%
COc1cc2c(cc1OC)C(=O)/C(=C/c1c[nH]c3ncccc13)C2 | > 100%
O=C1/C(=C/c2c[nH]c3ncccc23)Oc2cc(O)ccc21 | 87%
COc1cc2c(cc1OC)C(=O)/C(=C/c1c[nH]c3ncccc13)CC2 | > 100%

What follows are compounds tested on Leishmania major (assay: Residual activity of leishmania major CK1 at 1 uM using RRKHAAIGSpAYSIT as substrate in presence of ATP incubated for 50 mins by ADP-GloTM assay relative to control). Conditions: not given.

Compound | residual activity
O=Cc1c[nH]c2ncccc12 | 61%
COc1ccc2c(c1)C/C(=C\c1c[nH]c3ncccc13)C2=O | 79%
COc1ccc2c(c1)CC/C(=C\c1c[nH]c3ncccc13)C2=O | 57%
COc1ccc2c(c1)C(=O)/C(=C/c1c[nH]c3ncccc13)CC2 | 76%
O=C1/C(=C/c2c[nH]c3ncccc23)Cc2cc3c(cc21)OCO3 | 71%
O=C1/C(=C/c2c[nH]c3ncccc23)CCc2cc(O)ccc21 | 64%
O=C1/C(=C\c2c[nH]c3ncccc23)CSc2ccccc21 | 96%
O=C1/C(=C/c2c[nH]c3ncccc23)Cc2ccccc21 | 89%
O=C1/C(=C/c2c[nH]c3ncccc23)CCc2ccccc21 | 84%
COc1cc2c(cc1OC)C(=O)/C(=C/c1c[nH]c3ncccc13)C2 | 90%
O=C1/C(=C/c2c[nH]c3ncccc23)Oc2cc(O)ccc21 | 70%
COc1cc2c(cc1OC)C(=O)/C(=C/c1c[nH]c3ncccc13)CC2 | 83%

The compounds below were run against Glycogen synthase kinase-3 (Sus scrofa) (UniProt B2LUN4+I6LNT8) (assay: Inhibition of porcine GSK3-alpha/GSK3-Beta assessed as residual activity at 1 uM using RAAVPPSPSLSRHSSPHQSpEDEEE as substrate in presence of ATP incubated for 50 mins by ADP-GloTM assay relative to control; values are per cent of control). Conditions: Sus scrofa domesticus.

Compound | residual activity
O=Cc1c[nH]c2ncccc12 | 91%
COc1ccc2c(c1)C/C(=C\c1c[nH]c3ncccc13)C2=O | 36%
COc1ccc2c(c1)CC/C(=C\c1c[nH]c3ncccc13)C2=O | 81%
COc1ccc2c(c1)C(=O)/C(=C/c1c[nH]c3ncccc13)CC2 | > 100%
O=C1/C(=C/c2c[nH]c3ncccc23)Cc2cc3c(cc21)OCO3 | 42%
O=C1/C(=C/c2c[nH]c3ncccc23)CCc2cc(O)ccc21 | 37%
O=C1/C(=C\c2c[nH]c3ncccc23)CSc2ccccc21 | 66%
O=C1/C(=C/c2c[nH]c3ncccc23)Cc2ccccc21 | 45%
O=C1/C(=C/c2c[nH]c3ncccc23)CCc2ccccc21 | 42%
COc1cc2c(cc1OC)C(=O)/C(=C/c1c[nH]c3ncccc13)C2 | 49%
O=C1/C(=C/c2c[nH]c3ncccc23)Oc2cc(O)ccc21 | 35%
COc1cc2c(cc1OC)C(=O)/C(=C/c1c[nH]c3ncccc13)CC2 | 92%

Each compound was assayed against Casein kinase 1, delta tv1 (Sus scrofa) (UniProt M3VH47) (assay: Inhibition of porcine CK1-delta assessed as residual activity at 1 uM using RRKHAAIGSpAYSITA as substrate in presence of ATP incubated for 30 mins by ADP-GloTM assay relative to control; values are per cent of control). Conditions: Sus scrofa domesticus.

Compound | residual activity
O=Cc1c[nH]c2ncccc12 | 61%
COc1ccc2c(c1)C/C(=C\c1c[nH]c3ncccc13)C2=O | 84%
COc1ccc2c(c1)CC/C(=C\c1c[nH]c3ncccc13)C2=O | 83%
COc1ccc2c(c1)C(=O)/C(=C/c1c[nH]c3ncccc13)CC2 | 92%
O=C1/C(=C/c2c[nH]c3ncccc23)Cc2cc3c(cc21)OCO3 | 77%
O=C1/C(=C/c2c[nH]c3ncccc23)CCc2cc(O)ccc21 | 66%
O=C1/C(=C\c2c[nH]c3ncccc23)CSc2ccccc21 | 80%
O=C1/C(=C/c2c[nH]c3ncccc23)Cc2ccccc21 | 79%
O=C1/C(=C/c2c[nH]c3ncccc23)CCc2ccccc21 | 76%
COc1cc2c(cc1OC)C(=O)/C(=C/c1c[nH]c3ncccc13)C2 | 68%
O=C1/C(=C/c2c[nH]c3ncccc23)Oc2cc(O)ccc21 | 64%
COc1cc2c(cc1OC)C(=O)/C(=C/c1c[nH]c3ncccc13)CC2 | 86%
